Values marked as one replicate rest on one cluster of the flow cell; about a third of the high ones do not repeat.
test system: ATP; assay: switch fluorescence ratio, 500 uM ATP over buffer (Cy3 cluster intensity, sum of 5 cycles each) (fold (ratio)); higher = stronger signal-on switching upon ATP binding; sequences stand for … in TCGTCGGCAGCGTCAGATGTGTATAAGAGACAGTTTTTTTTTTTTTTTTTTTTTTTTT…TC; settings: aptamer strand: ATP DNA aptamer (quencher-CACCTGGGGGAGTATTGCGGAGGAAGG + anchor), 100 nM annealed; ATP concentration: 500 uM; one replicate
Procedure, shortened: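 The fluorescence ratio divides summed target-cycle Cy3 intensity by summed buffer-cycle Cy3 intensity for each cluster and is averaged per switch-domain sequence. Cy3-labelled switching-strand clusters on a modified Illumina MiSeq flow-cell were annealed to 100 nM quencher-labelled ATP aptamer, then imaged in selection buffer and again after 15 min with 500 uM ATP at 22 °C. Five such cycles were run, with NaOH stripping and re-annealing between them, and clusters outside 100-1000 RFU were excluded.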
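Note: ATP exposure 15 min at 22 °C before imaging.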

Sequence | switch fluorescence ratio
CCTGGCGCAT | 4.68
CCTGGGGACA | 1.02
CCTGGGTGGC | 1.12
CCTGGTTGAT | 1.02
CCTGTAAGGG | 0.987
CCTGTAGCG | 1.14
CCTGTCAGAT | 1.02
CCTGTCATAG | 1.14
CCTGTGTTCA | 1.03
CCTGTTCACA | 1
CCTGTTGCCT | 1.03
CCTTAAATAG | 1.72
CCTTAACAAT | 2.32
CCTTAATATG | 1.04
CCTTAATGGC | 1.02
CCTTACGCTT | 6.13
CCTTACTTCG | 3.42
CCTTAGAGTA | 1.01
CCTTAGCGTC | 1.54
CCTTCAAGA | 1.85
CCTTGAAAGA | 1
CCTTGAATGC | 2.4
CCTTGGAGC | 1.05
CCTTGGCGGG | 1.08
CCTTGGGGGT | 1.02
CCTTGGTT | 0.987

Sequence | switch fluorescence ratio
CCTTGTCAAA | 1.13
CCTTGTCTT | 1.03
CCTTGTCTTA | 1.01
CCTTGTGATA | 1.17
CCTTGTGATT | 0.993
CCTTTAGTA | 0.98
CCTTTCCGTC | 1.49
CCTTTCCTAC | 2.26
CCTTTGAGTT | 0.967
CCTTTGCCGG | 1.03
CCTTTGGACG | 1.05
CCTTTGGTGT | 1.16
CCTTTGTGCC | 1.04
CCTTTTATTG | 1
CCTTTTGGAA | 1.01
CCTTTTTGAG | 0.97
CCTTTTTGCG | 1.04
CGAAAAAACA | 1.11
CGAAAAAAG | 0.997
CGAAAATCT | 0.993
CGAAAATT | 1.02
CGAAACAGGT | 0.957
CGAAACCTGG | 1.25
CGAAACGCGC | 1.05
CGAAACGCGT | 0.966
CGAAACTACA | 1.06

Sequence | switch fluorescence ratio
CGAAACTCAG | 1.01
CGAAAGGTTT | 0.981
CGAAAGTAAC | 1.06
CGAAATAAAG | 0.985
CGAAATAGAC | 1.07
CGAAATGCTA | 1.24
CGAACAATGA | 1.18
CGAACCAAGC | 1.51
CGAACCGTGA | 1.06
CGAACGAT | 1.06
CGAACGGCTT | 1
CGAACGTA | 1.05
CGAACGTTCA | 1.01
CGAACTGGCG | 1.14
CGAAGAAAGA | 1.01
CGAAGAATGA | 0.986
CGAAGCTCGG | 1.08
CGAAGGTCTT | 1.02
CGAAGGTTAC | 1.97
CGAAGTAGC | 1.22
CGAAGTATGT | 0.955
CGAAGTCCGC | 2.04
CGAATAGTCA | 1.07
CGAATAGTGG | 0.998
CGAATCTCCT | 1.11

From the supplement of paper PMC10126150
